Data published in PubChem BioAssay AID540267 (National Center for Advancing Translational Sciences (NCATS), 2011).
Among all 340,000 compounds or so, about 530 (0.16%) were called active. This list was built around the results that the source calls inconclusive (neither active nor inactive); the mix of calls is not that of the screen. Rule as the data show it: active = activity change below about -80%; inconclusive = between about -30% and that limit; inactive = weaker than that.

Assay: Small Molecules that selectively kill Giardia lamblia: qHTS;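 also: parasites exposed to compound for two days anaerobically before the ATP read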
Conditions: Giardia lamblia trophozoite viability; at 7.66 µM; stronger effect = lower value
Summary of the method: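 Compounds were tested on trophozoites seeded at 100 cells/well and held 48 hrs at 37 deg C anaerobically. An ATP-based luminescent kit measured the remaining live cells.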
% is scaled to controls: 0 for no effect and ±100 for the full control effect.

Structure (SMILES) | activity change
O=C(NC1C2CC3CC(C2)CC1C3)c1ccc2c(c1)OCO2 (stereo not drawn) | inactive: 22.9%
Nc1n[nH]c(N)c1N=Nc1ccccc1F | inconclusive: -32.1% [inhibitor]
COCCCNC1=C(Cl)C(=O)c2ccccc2C1=O | inactive: -5.49%
O=C(NNC(=O)C1CCCN(S(=O)(=O)c2cccc(F)c2)C1)C1CC1 (stereo not drawn) | inconclusive: -30.2% [inhibitor]
Cc1cc(N2Cc3ccccc3C2)ccc1C=O | inconclusive: -31.7% [inhibitor]
Cn1nc(C(C)(C)C)c([N+](=O)[O-])c1C(=O)Nc1cccc2ccccc12 | inconclusive: -32.2% [inhibitor]
COc1ccccc1C(=O)Nc1ccc(Br)c2cccnc12 | inconclusive: -38.4% [inhibitor]
CC(C)(C)c1cc(C(=O)N/N=C/c2ccncc2)n[nH]1 | inconclusive: -46.5% [inhibitor]
C/C(=N\Nc1cc(N2CCOCC2)nc(C)n1)c1cccc([N+](=O)[O-])c1 | inactive: 12.4%
Cc1ccc2occ(C(c3nnnn3C3CCCC3)N3CCN(C(=O)c4ccco4)CC3)c(=O)c2c1 (stereo not drawn) | inactive: 4.17%
Cc1c(N=Nc2ccc(O)cc2)c(=O)n(-c2ccccc2)n1C | inconclusive: -53.5% [inhibitor]
CCCCn1c(N)c(N(CCC(C)C)C(=O)C2CCN(C(=O)c3ccccc3C)CC2)c(=O)[nH]c1=O | inactive: 4.17%
CCOc1ccc(CCN2C(=O)C(=O)N([C@@H](CC(C)C)CN3CCC[C@@H]3CN3C(=O)C(=O)NC[C@@H]3Cc3ccccc3)C[C@@H]2Cc2ccc(O)cc2)cc1 | inconclusive: -42% [inhibitor]
COc1ccc(CCNC(=O)C2CC(=O)N(c3ccc(C(C)(C)C)cc3)C2)cc1OC (stereo not drawn) | inactive: 13.7%
O=C(NCc1cccs1)C(=O)NCC(c1ccco1)N1CCN(c2ccc(F)cc2)CC1 (stereo not drawn) | inactive: -20.3%
COc1ccc2c(c1)[nH]c1c(=O)n(CCC3=CCCCC3)cnc12 | inactive: -24.3%
Cc1nnc(NC(=O)c2ccc(S(=O)(=O)N(C)Cc3ccccc3)cc2)o1 | inconclusive: -33.9% [inhibitor]
COc1cc2c(cc1OC)C(C(=O)N1CCCC1)C(c1ccccc1F)N(C)C2=O (stereo not drawn) | inconclusive: -37% [inhibitor]
O=C(CCC(=O)Nc1ccccc1)NNC(=O)c1ccccc1Cl | inactive: 11.3%
COc1ccccc1C(=O)NNC(=S)NC(=O)c1ccco1 | inconclusive: -38.2% [inhibitor]
COc1ccc([C@H]2CC(=O)C=C(c3cccc(OC(F)(F)F)c3)C2)cc1 | inactive: -6.99%
COCC(=O)Nc1c(C(=O)Nc2ccc3c(c2)OCO3)oc2ccccc12 | inconclusive: -33.9% [inhibitor]
O=C(Nc1ccccc1)Nc1ccc2nnsc2c1 | inconclusive: -31.2% [inhibitor]
CCOC(=O)C1CCN(C(=O)C(=O)N2CCC(C(=O)OCC)CC2)CC1 | inconclusive: -32.5% [inhibitor]
COc1ccc(-c2c(C#N)sc(C(N)=O)c2-c2ccc(OC)cc2)cc1 | inconclusive: -32% [inhibitor]
Cc1ccc(NC(=S)NC(NC(=O)c2ccccc2C)C(Cl)(Cl)Cl)c(C)c1 (stereo not drawn) | inactive: -0.556%

Structure (SMILES) | activity change
Nc1ncnc(NCc2ccccc2)c1[N+](=O)[O-] | inactive: -1.63%
O=C(Nc1ccccc1Cl)c1ccc([N+](=O)[O-])o1 | active: -82.8%
Cc1cccc(CNC(=O)Cn2ccc3cc(S(=O)(=O)N4CCCCCC4)ccc32)c1 | inconclusive: -36.6% [inhibitor]
CCCCCn1c(N2CCN(c3cccc(Cl)c3)CC2)nc2c1c(=O)[nH]c(=O)n2C | inactive: 2.33%
CC1CCCC(C)N1c1nnc(NC(=O)c2cc(-c3ccc(Br)cc3)on2)s1 (stereo not drawn) | inconclusive: -33.5% [inhibitor]
COc1cc(/C=N/n2c(C)n[nH]c2=S)ccc1OCc1ccc(F)cc1 | inconclusive: -30.1% [inhibitor]
CN(Cc1ccccc1)C(=O)c1nc2ccccn2c1CNCCn1cccn1 | inconclusive: -36.3% [inhibitor]
O=C(Nc1ccc2c(c1)OCCO2)c1ccc(Br)cc1 | inconclusive: -40.1% [inhibitor]
O=C(Nc1nccs1)c1ccc(Cl)cc1[N+](=O)[O-] | inactive: -4.11%
Cc1ccc(OCC(=O)c2cc(C)n(Cc3cccs3)c2C)c([N+](=O)[O-])n1 | inconclusive: -49.4% [inhibitor]
CCc1ccc(C2C(C(=O)O)c3ccccc3C(=O)N2C)cc1 (stereo not drawn) | inactive: -4.26%
O=C(CN1C(=O)c2cccc3cccc1c23)Nc1ccc(S(=O)(=O)N2CCOCC2)cc1 | inactive: -3.19%
Cc1cnn(C(=O)Cn2nc(C(F)F)c(Br)c2C)c1 | inconclusive: -31.6% [inhibitor]
O=C(CCc1ccccc1)NNC(=O)c1ccccc1Cl | inconclusive: -43% [inhibitor]
Cc1ccc(OCC(=O)Nc2ccc(S(=O)(=O)N3CCCCC3)cc2)c([N+](=O)[O-])n1 | inconclusive: -42.3% [inhibitor]
CC(C)CNC(=O)CSc1n[nH]c(=O)n1CCc1ccccc1 | inactive: -14.8%
COc1cc(C(C(=O)NC2CCCCC2)N(Cc2cccs2)C(=O)Cc2c[nH]c3ccccc23)cc(OC)c1OC (stereo not drawn) | inactive: -4.5%
N#Cc1c(NC(=O)CSC2=NCCS2)sc2c1CCCC2 | inactive: -5.65%
CC(=O)c1ccc2c(c1)c(C#N)c1ccccc1[n+]2[O-] | inconclusive: -59.1% [inhibitor]
Cc1ccc(CNC(=O)CCS(=O)(=O)Cc2ccc(C)cc2)cc1 | inconclusive: -31.9% [inhibitor]
c1ccc2c(c1)CCN(c1nc3cc4c(cc3s1)OCCO4)C2 | inconclusive: -48.2% [inhibitor]
O=C(CN(c1ccc(F)cc1)S(=O)(=O)c1ccccc1)N1CCOCC1 | inactive: -0.0038%
COc1cccc(CC2(CO)CCCN(Cc3c(C)cc(C)cc3-n3cccn3)C2)c1 (stereo not drawn) | inactive: 5.8%
COc1cc2c(cc1OC)CN(CCC(C)c1ccc(Cl)cc1)CC2 (stereo not drawn) | inactive: -10.4%
Clc1ccccc1/C=C/c1nc(-c2ccccn2)no1 | inconclusive: -40.5% [inhibitor]
Cc1occc1-c1nnc(SCC(=O)N2CCOCC2)n1CCc1ccccc1 | inconclusive: -31.6% [inhibitor]

Structure (SMILES) | activity change
O=C(Nc1cc(Cl)ccc1N1CCOCC1)c1ccco1 | inactive: -9.91%
N=C1/C(=C\c2ccc(Br)o2)C(=O)N=C2SC(CC(=O)N3CCOCC3)=NN12 | inconclusive: -32.4% [inhibitor]
Cc1csc(=O)n1CC(=O)OC(C)C(=O)Nc1cccc(Cl)c1 (stereo not drawn) | inactive: 12.3%
Cc1nnc(SCc2cc(=O)[nH]c(Nc3nc(C)c4cc(C)c(C)cc4n3)n2)s1 | inconclusive: -34.2% [inhibitor]
COc1cc2c3c(c1)c(N=NC(N)=S)c(O)n3C(C)(C)C=C2C | inactive: 3.82%
O=C(NCC(c1ccco1)N1CCN(c2ccc(F)cc2)CC1)C(=O)NC1CCCC1 (stereo not drawn) | inconclusive: -33.7% [inhibitor]
CCN1CCN(c2ccc(S(=O)(=O)N3CCCCC3)cc2NC(=O)c2ccc([N+](=O)[O-])s2)CC1 | inconclusive: -63.5% [inhibitor]
O=C(CN1C(=O)NC2(CCCCC2)C1=O)Oc1ccc2c(C(F)(F)F)cc(=O)oc2c1 | inactive: 15%
Cc1nnc(SCC(=O)Nc2ncc(S(=O)(=O)c3ccc([N+](=O)[O-])cc3)s2)s1 | inconclusive: -33.6% [inhibitor]
CCc1nn2c(=O)c(S(=O)(=O)Nc3ccc(Cl)cc3)c(C)nc2s1 | inconclusive: -51.7% [inhibitor]
Oc1ccc(C=NNC(=S)Nc2ccc(F)cc2)c(O)c1 | inactive: 7.75%
COc1ccc(NC(NC(=O)c2cccnc2)C(Cl)(Cl)Cl)cc1 (stereo not drawn) | inactive: 14.8%
CC(=O)N1CCc2c(sc(NC(=O)C3COc4ccccc4O3)c2C(N)=O)C1 (stereo not drawn) | inactive: -5.84%
N#CCCCCN1CCCC1 | inconclusive: -33.4% [inhibitor]
N/C(=N\c1nc2ccccc2o1)NC(=O)C(Cc1ccccc1)N1C(=O)c2ccccc2C1=O (stereo not drawn) | inconclusive: -54.3% [inhibitor]
C/C(=N\O)C(=O)NCCN(C)C | inconclusive: -30.8% [inhibitor]
CN(C(=O)c1ccc(NC(=O)Cc2cccc(NC(=O)C3CCN(C(=O)C4CC4)CC3)c2)cc1)C1CC1 | inconclusive: -44.8% [inhibitor]
Cc1nnc(SCC(=O)NC(=O)Nc2ccc3c(c2)OCCO3)s1 | inactive: -15.2%
O=C(NCc1ccc(F)cc1)C1CCCN1C(=O)Nc1ccc(Cl)cc1 (stereo not drawn) | inconclusive: -32.4% [inhibitor]
COc1ccc(CNC(=O)[C@H](C)NC(=O)C2CCN(C(=O)[C@@H](N)CCSC)CC2)cc1 | inactive: 3.19%
CCN(CC)C(=O)[C@H]1CC(CC(=O)NCCC2=CCCCC2)C(=O)N2CCc3c([nH]c4ccc(OC)cc34)[C@]12C (stereo partly drawn) | inactive: -24.9%
OC(COc1ccc2c(c1)OCO2)CN1CCCC1 (stereo not drawn) | inconclusive: -37.2% [inhibitor]
CCOc1ccc(N2CC(C(=O)N3CCCC3)CC2=O)cc1 (stereo not drawn) | inconclusive: -31.2% [inhibitor]
CCN(CC)c1nc(C#N)cc(-c2ccc(OC)cc2)n1 | inconclusive: -31.7% [inhibitor]
O=C(O)C[C@H]1c2ccccc2S(=O)(=O)N1C1CCCC1 | inconclusive: -34.7% [inhibitor]
Cc1ccc(O)c(NC(=O)c2ccc3c(c2)C(=O)N(CC(C)C)C3=O)c1 | inconclusive: -32.3% [inhibitor]
